Data on 31 molecules can be found in article PMC9911399, “Two distinct binding modes provide the RNA-binding protein RbFox with extraordinary sequence specificity”.

Positions count from the first letter of the chain named. The list shows a part of the results.

The chains are these.
T1: RBFOX1 RRM (Homo sapiens, UniProt Q9NWB1 109-208)
T1 sequence: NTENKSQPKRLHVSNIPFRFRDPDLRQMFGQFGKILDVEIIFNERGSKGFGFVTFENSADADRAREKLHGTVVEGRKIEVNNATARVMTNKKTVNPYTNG

B1: GCGACCA (DNA:RNA)
RNA: GGGAGACCGGAAUUCAGAUUGUCCGCGACCAUUAAAUCCCGUCGUAGCCACCA
DNA 1: CAATCTGAATTCCGGTCTCCC
DNA 2: TGGTGGCTACGACGGGATT
B2: CUUGCAU (DNA:RNA)
RNA: B1 RNA with G25C, C26U, G27U, A28G, C30A, A31U
DNA 1: CAATCTGAATTCCGGTCTCCC
DNA 2: TGGTGGCTACGACGGGATT
B3: ACUGCUG (DNA:RNA)
RNA: B1 RNA with G25A, G27U, A28G, C30U, A31G
DNA 1: CAATCTGAATTCCGGTCTCCC
DNA 2: TGGTGGCTACGACGGGATT
B4: GAUAAGA (DNA:RNA)
RNA: B1 RNA with C26A, G27U, C29A, C30G
DNA 1: CAATCTGAATTCCGGTCTCCC
DNA 2: TGGTGGCTACGACGGGATT
B5: AAUCACA (DNA:RNA)
RNA: B1 RNA with G25A, C26A, G27U, A28C, C29A
DNA 1: CAATCTGAATTCCGGTCTCCC
DNA 2: TGGTGGCTACGACGGGATT
B6: AGGAGCG (DNA:RNA)
RNA: B1 RNA with G25A, C26G, C29G, A31G
DNA 1: CAATCTGAATTCCGGTCTCCC
DNA 2: TGGTGGCTACGACGGGATT
B7: AAGUUUU (DNA:RNA)
RNA: B1 RNA with G25A, C26A, A28U, C29U, C30U, A31U
DNA 1: CAATCTGAATTCCGGTCTCCC
DNA 2: TGGTGGCTACGACGGGATT
B8: GUUCGAC (DNA:RNA)
RNA: B1 RNA with C26U, G27U, A28C, C29G, C30A, A31C
DNA 1: CAATCTGAATTCCGGTCTCCC
DNA 2: TGGTGGCTACGACGGGATT
B9: UGGCGUU (DNA:RNA)
RNA: B1 RNA with G25U, C26G, A28C, C29G, C30U, A31U
DNA 1: CAATCTGAATTCCGGTCTCCC
DNA 2: TGGTGGCTACGACGGGATT
B10: UCGGUAG (DNA:RNA)
RNA: B1 RNA with G25U, A28G, C29U, C30A, A31G
DNA 1: CAATCTGAATTCCGGTCTCCC
DNA 2: TGGTGGCTACGACGGGATT
B11: GGGGGGA (DNA:RNA)
RNA: B1 RNA with C26G, A28G, C29G, C30G
DNA 1: CAATCTGAATTCCGGTCTCCC
DNA 2: TGGTGGCTACGACGGGATT
B12: UAUUACC (DNA:RNA)
RNA: B1 RNA with G25U, C26A, G27U, A28U, C29A, A31C
DNA 1: CAATCTGAATTCCGGTCTCCC
DNA 2: TGGTGGCTACGACGGGATT
B13: AAAACAA (DNA:RNA)
RNA: B1 RNA with G25A, C26A, G27A, C30A
DNA 1: CAATCTGAATTCCGGTCTCCC
DNA 2: TGGTGGCTACGACGGGATT
B14: CGGGCUG (DNA:RNA)
RNA: B1 RNA with G25C, C26G, A28G, C30U, A31G
DNA 1: CAATCTGAATTCCGGTCTCCC
DNA 2: TGGTGGCTACGACGGGATT
B15: AUUCCGC (DNA:RNA)
RNA: B1 RNA with G25A, C26U, G27U, A28C, C30G, A31C
DNA 1: CAATCTGAATTCCGGTCTCCC
DNA 2: TGGTGGCTACGACGGGATT
B16: UUAGGUC (DNA:RNA)
RNA: GGGAGACCGGAAUUCAGAUUGUCCUUAGGUCUUAAAUCCCGUCGUAGCCACCA
DNA 1: CAATCTGAATTCCGGTCTCCC
DNA 2: TGGTGGCTACGACGGGATT
B17: UGACCUG (DNA:RNA)
RNA: B16 RNA with U26G, G28C, G29C, C31G
DNA 1: CAATCTGAATTCCGGTCTCCC
DNA 2: TGGTGGCTACGACGGGATT
B18: CCAUUCU (DNA:RNA)
RNA: B1 RNA with G25C, G27A, A28U, C29U, A31U
DNA 1: CAATCTGAATTCCGGTCTCCC
DNA 2: TGGTGGCTACGACGGGATT
B19: GGUUUAC (DNA:RNA)
RNA: B1 RNA with C26G, G27U, A28U, C29U, C30A, A31C
DNA 1: CAATCTGAATTCCGGTCTCCC
DNA 2: TGGTGGCTACGACGGGATT
B20: AAGAUUU (DNA:RNA)
RNA: B1 RNA with G25A, C26A, C29U, C30U, A31U
DNA 1: CAATCTGAATTCCGGTCTCCC
DNA 2: TGGTGGCTACGACGGGATT
B21: CAUUUCU (DNA:RNA)
RNA: B1 RNA with G25C, C26A, G27U, A28U, C29U, A31U
DNA 1: CAATCTGAATTCCGGTCTCCC
DNA 2: TGGTGGCTACGACGGGATT
B22: CAUCGGA (DNA:RNA)
RNA: B1 RNA with G25C, C26A, G27U, A28C, C29G, C30G
DNA 1: CAATCTGAATTCCGGTCTCCC
DNA 2: TGGTGGCTACGACGGGATT
B23: UCCGCUG (DNA:RNA)
RNA: B16 RNA with U26C, A27C, G29C, C31G
DNA 1: CAATCTGAATTCCGGTCTCCC
DNA 2: TGGTGGCTACGACGGGATT
B24: CCCGUAG (DNA:RNA)
RNA: B1 RNA with G25C, G27C, A28G, C29U, C30A, A31G
DNA 1: CAATCTGAATTCCGGTCTCCC
DNA 2: TGGTGGCTACGACGGGATT
B25: ACGUAAA (DNA:RNA)
RNA: B1 RNA with G25A, A28U, C29A, C30A
DNA 1: CAATCTGAATTCCGGTCTCCC
DNA 2: TGGTGGCTACGACGGGATT
B26: ACGCCCC (DNA:RNA)
RNA: B1 RNA with G25A, A28C, A31C
DNA 1: CAATCTGAATTCCGGTCTCCC
DNA 2: TGGTGGCTACGACGGGATT
B27: CCUUAAA (DNA:RNA)
RNA: B1 RNA with G25C, G27U, A28U, C29A, C30A
DNA 1: CAATCTGAATTCCGGTCTCCC
DNA 2: TGGTGGCTACGACGGGATT
B28: ACUGCCA (DNA:RNA)
RNA: B1 RNA with G25A, G27U, A28G
DNA 1: CAATCTGAATTCCGGTCTCCC
DNA 2: TGGTGGCTACGACGGGATT
B29: ACUACUC (DNA:RNA)
RNA: B1 RNA with G25A, G27U, C30U, A31C
DNA 1: CAATCTGAATTCCGGTCTCCC
DNA 2: TGGTGGCTACGACGGGATT
B30: UGACUUG (DNA:RNA)
RNA: B16 RNA with U26G, G28C, G29U, C31G
DNA 1: CAATCTGAATTCCGGTCTCCC
DNA 2: TGGTGGCTACGACGGGATT
B31: GCUAUAG (DNA:RNA)
RNA: B1 RNA with G27U, C29U, C30A, A31G
DNA 1: CAATCTGAATTCCGGTCTCCC
DNA 2: TGGTGGCTACGACGGGATT

For the assay, the target named is T1, RBFOX1 RRM. Briefly: EMSA; HiTS-Eq, 1 nM pool, 10 min; buffer printed only for the single-RNA assays: 10 mM Tris pH 7.5, 150 mM NaCl, 3.4 mM EDTA, 0.001% NP-40, 30 C. The note with it: tags: His6 N-terminal (pET28a); label: 5' 32P. An outline of the steps: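 Purified RbFox RRM, wild type or mutant, was incubated for 10 min in 50 µL with 1 nM of a 5′-radiolabelled RNA pool carrying 7 randomized nucleotides, whose flanks were annealed to DNA oligonucleotides, over a series of increasing protein concentrations. Unbound RNA was resolved on 8% native PAGE, cut out, reverse-transcribed, barcoded by PCR and sequenced on an Illumina HiSeq 2500. Relative association constants were derived from changes in read counts for each RNA species versus the control reaction and normalised to the cognate motif.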
For B1, the binding signal was 0.00785 KA relative to UGCAUGU.

On to B2, for which the binding signal is 0.0144 KA relative to UGCAUGU.

Take B3: the binding signal was 0.0149 KA relative to UGCAUGU.

For B4, the binding signal is 0.0105 KA relative to UGCAUGU.

For B5, the binding signal was 0.000184 KA relative to UGCAUGU.

As for B6, the binding signal is 0.0162 KA relative to UGCAUGU.

With B7, the binding signal was 0.0052 KA relative to UGCAUGU.

Take B8: the binding signal was 0.0154 KA relative to UGCAUGU.

Take B9: the binding signal was 0.0221 KA relative to UGCAUGU.

As to B10, the binding signal was 0.0155 KA relative to UGCAUGU.

For the molecule B11, the binding signal is 0.0226 KA relative to UGCAUGU.

Turning to B12, the binding signal was 0.00418 KA relative to UGCAUGU.

In the case of B13, the binding signal was 0.000116 KA relative to UGCAUGU.

As to B14, the binding signal is 0.0324 KA relative to UGCAUGU.

On to B15, for which the binding signal was 0.00359 KA relative to UGCAUGU.

Consider B16, for which the binding signal is 0.0171 KA relative to UGCAUGU.

Take B17: the binding signal was 0.0199 KA relative to UGCAUGU.

As for B18, the binding signal is 0.000278 KA relative to UGCAUGU.

As to B19, the binding signal is 0.0136 KA relative to UGCAUGU.

Regarding B20, the binding signal was 0.00694 KA relative to UGCAUGU.

Turning to B21, the binding signal is 0.00409 KA relative to UGCAUGU.

For the molecule B22, the binding signal was 0.00578 KA relative to UGCAUGU.

Take B23: the binding signal is 0.017 KA relative to UGCAUGU.

On to B24, for which the binding signal was 0.0113 KA relative to UGCAUGU.

Turning to B25, the binding signal is 0.000585 KA relative to UGCAUGU.

As to B26, the binding signal is 0.00646 KA relative to UGCAUGU.

Take B27: the binding signal was 0.0014 KA relative to UGCAUGU.

As to B28, the binding signal was 0.0036 KA relative to UGCAUGU.

For B29, the binding signal was 0.00205 KA relative to UGCAUGU.

Consider B30, for which the binding signal is 0.0454 KA relative to UGCAUGU.

As for B31, the binding signal was 0.012 KA relative to UGCAUGU.
